The full ranking holds about 33,000 sequences; the median of “E-score (-0.5 to 0.5)” is about -0.011, and the highest 2% start at about 0.28. This is one part of the list.
Molecular target: T1, Gcr1 (UniProt P07261)
T1 sequence: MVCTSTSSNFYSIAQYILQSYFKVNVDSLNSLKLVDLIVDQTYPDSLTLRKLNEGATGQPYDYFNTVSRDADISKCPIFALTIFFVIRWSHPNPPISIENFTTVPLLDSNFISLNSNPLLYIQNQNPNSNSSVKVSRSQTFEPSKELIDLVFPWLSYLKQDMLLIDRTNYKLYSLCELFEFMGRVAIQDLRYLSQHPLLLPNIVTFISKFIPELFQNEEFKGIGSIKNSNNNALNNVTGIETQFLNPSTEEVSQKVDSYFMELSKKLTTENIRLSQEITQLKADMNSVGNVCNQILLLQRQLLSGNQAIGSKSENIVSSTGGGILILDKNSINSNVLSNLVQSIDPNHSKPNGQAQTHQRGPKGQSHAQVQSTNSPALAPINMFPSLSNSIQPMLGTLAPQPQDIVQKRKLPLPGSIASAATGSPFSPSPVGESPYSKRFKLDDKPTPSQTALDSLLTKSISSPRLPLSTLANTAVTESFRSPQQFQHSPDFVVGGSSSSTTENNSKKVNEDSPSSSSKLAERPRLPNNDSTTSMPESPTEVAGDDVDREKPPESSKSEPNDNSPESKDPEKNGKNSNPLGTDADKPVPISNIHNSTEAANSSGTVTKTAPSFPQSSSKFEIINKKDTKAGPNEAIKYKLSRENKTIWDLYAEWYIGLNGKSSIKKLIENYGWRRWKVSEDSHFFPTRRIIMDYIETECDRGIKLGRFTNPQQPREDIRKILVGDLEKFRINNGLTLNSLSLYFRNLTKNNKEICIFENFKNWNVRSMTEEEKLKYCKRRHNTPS
Test: PBM E-score (8-mer binding enrichment) (E-score (-0.5 to 0.5)); higher = stronger / more preferred TF binding; most listed sequences are background and not binding sites
Details: protein concentration: 100 nM; construct: GST-full length
How it was run: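 Yeast transcription factors, full-length or as DNA-binding domains, were expressed with a GST tag using PURExpress in vitro transcription/translation. At about 100-200 nM they were applied to universal all-10-mer Agilent arrays, double-stranded by primer extension on fresh or once-stripped slides. Fluorescent anti-GST detected bound protein, and masliner normalised the scans. E-scores for ungapped eight-base words, pooled with reverse complements, came from the Universal PBM Analysis Suite.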

Sequence	PBM E-score
CTTTCATC	-0.0339
CCATGAGG	-0.146
GCAGAAAA	0.158
CGATATTA	0.0468
ACCCATGG	0.0263
ACGCCCAT	-0.118
CACTATTA	0.196
CATCAGAC	-0.0224
CGTTAGGA	0.0129
CGGTTTAA	-0.0718
AAGTTGGA	0.261
ACATGTGG	0.125
GCCTTAAA	-0.0836
CTTTAGCA	0.0232
CGGAAGAC	0.102
CCACTTCA	0.215
CACGGTCC	-0.0281
CCAACTAA	0.133
CCAGAATA	0.283
AAAAACTC	-0.0203
AACATCTA	0.112
ACCGTGCA	-0.296
AGCTCCCA	0.221
GTAGAGAA	0.0297
ATTACTGC	-0.0604

Sequence	PBM E-score
ATCCCGAT	0.0523
GCTAATTA	-0.0265
ATTGAAAA	0.0725
ACTTCGGC	-0.0369
GCGATCGA	-0.276
ATCAAACG	-0.0391
GTGGTAAA	-0.0819
GATTCTGC	-0.0982
CAGATTCA	-0.0169
ACCCTTCC	-0.106
CCACAAAA	0.282
ACGTTGCG	0.139
AGGAAATC	-0.145
CACTATGA	-0.0249
ACTATAAT	0.177
CCCAACAC	0.0203
AAAAATGT	0.0608
AGACTCTG	0.0321
AAATCATC	-0.0813
GCCATAGC	-0.0767
CCTGTAAC	0.217
AAAGTCGG	-0.122
ACGTGTGC	-0.0784
GTTAGTGA	-0.275
AGAATTGA	-0.00502

Sequence	PBM E-score
CCAAGCAA	-0.0239
AGTTAGAG	0.125
CTGTTTCC	0.0835
CACGTGCC	-0.121
GTTGTATA	0.0484
AAGTAGCT	0.208
AAGAGGCA	0.157
AATGATCC	0.0954
AGAACAAG	-0.0582
GACAGCGC	-0.234
CCTTGCCG	-0.204
AGAAAAAT	-0.0489
ACTCGAGG	0.042
GGACAATA	-0.0211
ATAGCGGA	0.0708
CTAGCTTA	-0.172
AGCGGAAC	0.108
AACGCCGA	-0.0262
CTGCGACC	0.0296
AGCAGTGG	0.0343
AGGTCTGA	-0.237
TTATCCAA	0.0882
GACGGAAC	-0.0501
CACACTCG	-0.172
CAGCTGAC	-0.2

Sequence	PBM E-score
ACGGCAGT	-0.199
CGTTGTGC	-0.114
AAGGCGAC	0.0948
CTATCGGC	-0.00376
GAGATATA	0.108
ATTCCTTC	0.0393
ATCCACAA	0.187
CACGTCGC	0.0612
GCAGGAGC	0.00885
CCAAACAA	0.213
ACACCATG	0.0145
GGAAACAA	0.0444
AATACGGC	-0.152
AGTTGTGA	0.0449
ACGAATAC	0.189
CGAGCGTC	0.195
CCTTCGAA	0.00266
CCCGGCTC	0.08
AGACTCTA	-0.0553
CCCCTGTA	0.284
AACAATCC	-0.0423
CAATCAAA	0.0122
ACACTAAT	-0.022
CGGCTGTC	-0.136
TAGATTAA	-0.13

Sequence	PBM E-score
GATCAGAC	-0.0174
AAGCCTCG	-0.128
CCTTGTAA	0.137
CCGCCCGC	-0.0787
ATTATTGC	-0.0143
GGGTCTTA	0.0592
CACGGCAC	0.15
ACAATCAG	-0.12
CACTTAAC	-0.0345
ACCTCCGT	-0.158
GTACGTTA	-0.16
ATTATAAT	0.212
CTTGTGGC	0.0758
GTTTCGTA	0.0977
CTTCCGAC	-0.00712
GGGGCCCC	0.182
CCAGAAAC	0.269
AGTCTAAA	-0.159
CTTATACC	-0.0274
ACGCCAGT	0.137
ACCAACTC	0.106
GAAGCAAA	-0.11
AAGCGGCA	0.0641
AAGTTGCA	0.0286
CTCGAGAC	0.0137

Sequence	PBM E-score
ATCAACTC	-0.144
TGTACGAA	-0.0883
CCGCGCGA	-0.196
GTTATATA	-0.0408
AACCCAAG	-0.0529
CAGTAGGC	0.0563
AGTACGAT	0.0999
CGGGGCGA	-0.101
CCAGTAAC	0.205
AACGCCTC	-0.0454
GGTGTACA	-0.124
CTAAAGTA	-0.0382
AGAATGGA	0.0185
CTTCCCCA	0.141
CCAATTTA	0.0335
AGCCTGCA	-0.0383
CTATATAG	0.0489
ATTGCCGA	-0.127
GCGTGTGA	-0.0466
TTCATGAA	0.169
AACGACCT	0.00615
CATTGCGG	-0.0547
CTGTGTGA	-0.0438
CAGGGGCG	-0.016
ATCGCAAG	-0.138

Sequence	PBM E-score
ACCCGTAG	0.101
ACAACCTC	-0.144
CGCTTATC	-0.159
TGCCGGCA	0.0322
CATGGGGG	-0.186
GCATCCCA	0.309
GGTTGGTA	-0.152
AAAGCAGG	0.0327
GGTCTCTA	-0.154
AGCATAGC	-0.197
CGCTACCG	0.0476
AGCGATCA	0.0825
GGAGTAAC	-0.116
CAGCGCGA	-0.0776
ACTTCTTA	0.104
TACTGAGA	-0.0843
AAGTTCCG	0.0935
GTGCAGGA	0.0287
AAACGGGA	0.145
AAAAATCG	0.0488
AAGCTCCT	-0.0172
CAGCTCTA	-0.097
CTATGATA	-0.125
GCCCCGAA	0.126
CAGTCTAA	0.106

Sequence	PBM E-score
TCGGTAGA	0.0482
GGCTAGCC	-0.447
ACGGGCTG	-0.0959
AGTTAACG	-0.00946
TGACCCCA	-0.0436
GGGGGGCA	-0.0602
GGCCGTTA	0.0646
CTTCCATA	0.236
CAGGAAGG	0.184
CAGGTAGA	-0.0481
AGATGATG	0.0498
ACCCCAGT	0.0219
GTCGTTTA	0.0289
CCTTCCAC	0.208
AATTACCT	-0.264
CTTAGCTC	-0.0718
GGGCATTA	-0.0795
GCTCACTA	-0.211
CTTAGACC	-0.0765
ACCGGCAC	0.143
ACAGTGAG	-0.152
AGAGGGAG	0.0729
AAAATCTT	-0.0416
CCAGCGCA	-0.0884
GTTACAAA	0.0591

Sequence	PBM E-score
AAGGTACC	0.0237
TACCCTCA	-0.0455
GCCCAGTA	0.11
AGGGGCTC	-0.0666
ATGGTAGC	-0.135
GACGAACC	-0.0115
ACTTGTAC	0.0885
CCTCTTCC	-0.142
GAGGCACA	0.0667
AGGAGGCG	-0.0375
CGCGGTTC	-0.00972
TAAGCGTA	-0.214
CAGATACA	0.0958
GATAACGC	0.0645
AGGCCAGC	-0.196
CTCAAGTA	-0.035
ACCCCCCC	-0.213
ACCCCGGC	-0.0658
ACCAAAAT	0.177
CATGCATC	-0.0542
CGATAACG	-0.121
ACGTTTAT	-0.0156
AGCAGACG	0.0519
GTCTTTGA	0.0325
CCACGATC	0.114

Sequence	PBM E-score
CGCTGCCA	0.185
CCTGCGGA	0.00368
CAACATCA	-0.00816
TAGGTACA	-0.158
ACAGGGTA	-0.185
GGGGGGGA	-0.345
AAGTAACG	-0.139
AAGTTAGT	-0.2
GGGGGTAA	-0.108
AGGCGTTC	0.0118
TATAGACA	0.00015
GTATGAAA	0.0292
ATTCGAGC	-0.138
GGATTGAA	-0.19
GATGAGGA	-0.00884
AACAGGGT	-0.0823
CCCCTGCC	-0.207
ATGGATAG	-0.00601
AGTTGCGC	0.0859
ATAGACAA	-0.0747
AACTACTG	-0.0124
CACGAGTA	0.0314
GGGGACAA	0.0734
TCACATGA	-0.104
GAATACGA	0.256

Sequence	PBM E-score
CCAGACGG	-0.112
ACAACTCA	-0.0394
ATTGGAGA	0.143
CGGTGCGA	-0.0181
AATTGGAA	0.238
CGATGCCC	0.0343
AATAGGAA	0.352
TGCCGAAA	0.0514
CCGCTATA	0.119
AATCACCG	-0.0362
AGAGGTTA	0.0121
GTACTCAA	0.0758
ACGTGGGA	-0.0793
AATTCGAT	-0.0107
AGGCTATC	-0.243
GTAGGCGA	-0.0399
AAACCGTT	-0.228
AGCAGCTG	0.311
CGAGAGTA	-0.121
AGTATAAG	-0.0218
CGACAGTC	-0.234
CCAGAGAG	0.00106
CGCTGGCC	-0.13
GTAGCCAA	0.146
AAGACCAC	-0.123

Sequence	PBM E-score
CTCATTGA	-0.052
AACTCGAT	-0.143
ACACTCCG	-0.12
CAGAGTGA	-0.0651
AGGATGGC	-0.0982
ATAAGATA	0.155
CAGTGTGC	-0.0936
CAGTTGCC	0.0724
AAATGGGT	0.136
ATTATGGA	0.161
GCACAACC	-0.193
CTGATCTC	-0.125
CAAATCTC	-0.0332
ACCCTACT	0.054
AAGGGGCA	-0.0333
GGGGTTTA	-0.117
CTTCCTTA	0.153
GATGTTGA	0.114
CCCTGTGC	0.0369
CAAGCTGA	-0.139
ATGCAATG	-0.163
ATCGCTGC	0.0242
GAGGCATC	0.0343
CCGGGGGA	-0.0656
AGACAGGA	0.269

Sequence	PBM E-score
TGCAGCAA	0.144
AGTTTCGG	0.143
GAAACGCC	-0.193
GCCCGGAA	0.0517
ACGTCCTG	-0.0297
CAGAATAG	0.18
CTGGGATC	0.249
TAAAGCCA	-0.0674
AAGGCGCC	0.258
CCAAGTCC	0.0545
TCATGTCA	0.0214
GAGCCTGC	-0.0426
AAACGGAC	0.0362
CTTAAGAA	0.209
CTCATTCA	-0.0405
CATTATAC	0.139
CCAGCCTC	-0.026
GCGTTGGA	-0.137
ATGAGCCC	-0.157
CCTGTCCA	-0.0831
CCAGTGAG	-0.0534
AATCGTCC	-0.115
TACTCCGA	-0.0241
TACGTCGA	-0.0822
CCACCGCG	-0.0592

Sequence	PBM E-score
ACAAGGCT	-0.134
CTAACATC	-0.094
ATCATTGC	-0.157
ACAACCAC	0.119
CCACCGGA	0.153
GCGGCGAC	0.148
AGTTGGTG	0.0768
CCTCATAA	0.0248
ATGGATTA	0.0376
ACATGGCT	-0.126
ATCGCCCA	-0.0335
CTGACGTC	-0.0827
AAACGCTC	-0.0758
CGTAGCAC	0.084
TCGATGCA	0.0074
AATTGGGT	0.138
GAGAGATC	-0.353
AAATCGAC	-0.16
TGATACCA	0.107
